Hit rate of the full screen: of about 150,000 compounds, about 540 (0.36%) showed an effect of 50% or more. The list shows a part of the results.
Each compound was assayed on Plasmodium falciparum (assay: Primary screen in NF54 nanoGlo assay, in single point, at 2uM, 72h; a lower Z score goes with more inhibition). Details: timepoint 72 hour.
Assay type: functional, Erythrocyte
For `CC(C)[C@@H](O)CNC(=O)c1ccc2c(Br)cnn2c1`, the “% Inhibition” value was -3% and the Z score was 0.56.
For `CC(C)n1cnnc1[C@H](C)Nc1nc(-c2ccccc2)no1`, the “% Inhibition” value was -9% and the Z score was 1.07.
For `COC[C@H]1CCCN(c2nc(N)nc(C3CCCC3)n2)C1`, the “% Inhibition” value was -2% and the Z score was 0.23.
For `CC1=NN(c2ccccc2)C(=O)C12Cc1cc(Br)ccc1N1CCN(C)CC12` (centres undefined), the “% Inhibition” value was -10% and the Z score was 1.43.
`Cc1ccc(-c2nc(NC(=O)C3C4C=CC(CC4)C3C(=O)O)sc2C)c(C)c1` (centres undefined) was tested, and the “% Inhibition” value was -5% and the Z score was 1.
With `c1ccc2c(c1)OC[C@@H](c1noc(Cc3c[nH]c4ccccc34)n1)O2` the “% Inhibition” value was -8% and the Z score was 1.07.
With `CCc1ccc(-c2cc(NC(=O)Nc3cc(-c4ccc(CC)cc4)no3)on2)cc1` the “% Inhibition” value was -1% and the Z score was 0.19.
With `O=C1CS(=O)(=O)C[C@@H](C(=O)N2CC=C(c3ccccc3F)C2)N1` the “% Inhibition” value was 0% and the Z score was -0.06.
For `Cc1noc(C)c1CN(C)CCC(=O)NC1CCCC1`, the “% Inhibition” value was 0% and the Z score was 0.04.
For `c1coc(-c2nnc(CN[C@H]3CCc4ncnn4C3)o2)c1`, the “% Inhibition” value was -5% and the Z score was 0.62.
In the case of `CCCc1nc(C)c(C(=O)N(C2CCCCC2)C2CC2)s1`, the “% Inhibition” value is reported as -9% and the Z score is reported as 1.16.
In the case of `COCCNCCOc1ccc(C)cc1Br`, the “% Inhibition” value is reported as -3% and the Z score is reported as 0.63.
With `O=C1c2ccccc2N[C@H](c2cccs2)N1c1ccc2c(c1)OCO2` the “% Inhibition” value was -18% and the Z score was 1.5.
In the case of `Cc1nc(C#N)c(C#N)n1Cc1cc(Cl)cc2c1OCOC2`, the “% Inhibition” value is reported as 6% and the Z score is reported as -0.72.
For `Cc1cc(F)c(Br)cc1NCc1ncnn1C`, the “% Inhibition” value was -1% and the Z score was 0.18.
With `Cc1cc(Cl)c(C(=O)N(C)Cc2nnc(C3CC3)n2C)cc1C` the “% Inhibition” value was -8% and the Z score was 0.78.
In the case of `CON(C)S(=O)(=O)c1cc(Br)cc2c1OCCNC2=O`, the “% Inhibition” value is reported as -12% and the Z score is reported as 1.15.
In the case of `O=S1(=O)CC[C@H](CNc2nc(-c3cccc(Oc4ccccc4)c3)no2)C1`, the “% Inhibition” value is reported as 25% and the Z score is reported as -3.26.
`CN(c1ccccc1)S(=O)(=O)CCCCS(=O)(=O)NCC1CC1` was tested, and the “% Inhibition” value was 2% and the Z score was -0.24.
`CCn1ccnc1CNC1c2cccc(F)c2CCC1C` (centres undefined) was tested, and the “% Inhibition” value was -12% and the Z score was 1.36.
In the case of `O=C1NCCCCC1CC(=O)N1CCOCC1C1CCCCC1O` (centres undefined), the “% Inhibition” value is reported as 5% and the Z score is reported as -0.68.
With `CC(C)(O)CN1CCN(C(=O)c2cccn3ccnc23)CC1` the “% Inhibition” value was -8% and the Z score was 1.48.
`Cc1[nH]nc(CCC(=O)N2C[C@H](C(C)C)[C@@H](N(C)C)C2)c1C` was tested, and the “% Inhibition” value was -23% and the Z score was 2.33.
For `C[C@@H]1CN(C(=O)c2n[nH]cc2Cl)CC[C@@]1(O)C1CCOCC1`, the “% Inhibition” value was -3% and the Z score was 0.52.
With `CC1(C(=O)NCCS(N)(=O)=O)CCC1` the “% Inhibition” value was -15% and the Z score was 2.07.
For `CC(=O)NCCC(=O)OC1CCCCC1C(C)C` (centres undefined), the “% Inhibition” value was -8% and the Z score was 1.51.
With `CCc1nc(C)ccc1OCc1cc(=O)n(C)c(=O)n1C` the “% Inhibition” value was -6% and the Z score was 0.56.
In the case of `CC1CC(C)CN(CC(C)NC(=O)C(O)c2ccccc2)C1` (centres undefined), the “% Inhibition” value is reported as 26% and the Z score is reported as -2.95.
In the case of `COc1ccccc1CC(=O)N(C[C@H]1CCOC1)C1CC1`, the “% Inhibition” value is reported as -5% and the Z score is reported as 0.59.
`Cc1cccc(C2C(C(=O)NCC3CCCO3)c3ccccc3C(=O)N2C2CC2)c1` (centres undefined) was tested, and the “% Inhibition” value was 4% and the Z score was -0.65.
For `CCNC(=O)NCc1nn(C)c2c1CCCC2`, the “% Inhibition” value was -12% and the Z score was 2.26.
`Cc1cccc(-c2noc(-c3cccnc3N3CCN(c4ccc5c(c4)OCO5)CC3)n2)c1` was tested, and the “% Inhibition” value was 21% and the Z score was -2.49.
For `Cc1ccc(Nc2nc(N3CCOCC3)nc3nccnc23)cc1C`, the “% Inhibition” value was -1% and the Z score was 0.15.
In the case of `CC(O)C1CCCCN1C(=O)c1nccc2ccccc12` (centres undefined), the “% Inhibition” value is reported as -11% and the Z score is reported as 1.23.
For `CCc1ccccc1NC(=O)c1ccc(N2C(=O)[C@@H](C)CS2(=O)=O)cc1Cl`, the “% Inhibition” value was -4% and the Z score was 0.76.
In the case of `CC(C)N(CCN1CCCCCC1)c1ccc2nnc(C(F)F)n2n1`, the “% Inhibition” value is reported as -7% and the Z score is reported as 0.65.
For `CC(C)(C)OC(=O)NC1CCCC1Nc1cnn(-c2ccccn2)c1` (centres undefined), the “% Inhibition” value was -13% and the Z score was 1.28.
In the case of `CC1(C)CN(C(=O)NCc2ccccc2F)CCCN1`, the “% Inhibition” value is reported as -3% and the Z score is reported as 0.45.
With `CCOC(=O)[C@H]1CCCN(S(=O)(=O)c2cc(-c3cc(C)no3)ccc2C)C1` the “% Inhibition” value was -3% and the Z score was 0.38.
With `C1CCC(c2noc(CNC3CCOC3C3CC3)n2)C1` (centres undefined) the “% Inhibition” value was -1% and the Z score was 0.15.
With `CCc1nnsc1C(=O)Nn1cnc2ccccc2c1=O` the “% Inhibition” value was 19% and the Z score was -2.23.
`COCCNC(=O)Nc1ccn2nccc2c1` was tested, and the “% Inhibition” value was -3% and the Z score was 0.4.
With `Cc1ccc(S(=O)(=O)CC(=O)Nc2ccncc2)cc1` the “% Inhibition” value was 34% and the Z score was -3.82.
`COC[C@H]1CCCN1Cc1cccc(C(=O)Nc2cc(C)cc(C)n2)c1` was tested, and the “% Inhibition” value was 9% and the Z score was -1.02.
With `CC(C)(CNC(=O)NCCS(C)(=O)=O)Cc1cccc(Cl)c1` the “% Inhibition” value was -11% and the Z score was 1.22.
For `CCC1(CC)CNC(=O)[C@H]1NC(=O)c1cc(-c2ccncc2)nn1C`, the “% Inhibition” value was -15% and the Z score was 3.2.
For `CC(C)C(=O)N1CC(n2ccnc2C(C)C)C1`, the “% Inhibition” value was -6% and the Z score was 0.71.
`c1csc(-c2cn(Cc3csc(N4CCCC4)n3)nn2)n1` was tested, and the “% Inhibition” value was 4% and the Z score was -0.75.
In the case of `O=C(NC1CCCC1)N1CCC2(CC1)C[C@@H](OCc1ccccc1)CCO2`, the “% Inhibition” value is reported as 36% and the Z score is reported as -0.92.
With `CC(C)N(C)C(=O)Cn1c(-c2ccco2)nn(-c2ccc(Cl)cc2)c1=O` the “% Inhibition” value was -3% and the Z score was 0.51.
`Cc1ccc([C@H]2CC(=O)Nc3c2c(C2CC2)nn3C)c(C)c1F` was tested, and the “% Inhibition” value was 4% and the Z score was -0.63.
`C1=CCC(COc2nccn3nccc23)C1` was tested, and the “% Inhibition” value was -1% and the Z score was 0.12.
For `CC1CCN(C(=O)c2csc(S(=O)(=O)N3CCc4ccccc4C3)c2)CC1`, the “% Inhibition” value was -8% and the Z score was 0.81.
For `Cc1cc2ncn(CC3CCN(C(=O)CN4C(=O)CCC4=O)CC3)c2cc1C`, the “% Inhibition” value was 12% and the Z score was -1.33.
For `CC(C)[C@H]1COC(=O)N1Cc1ccc(OC(F)F)cc1`, the “% Inhibition” value was -9% and the Z score was 1.61.
With `Cc1nc2c(N(C)Cc3noc4c3CCCC4)ncnc2o1` the “% Inhibition” value was -9% and the Z score was 1.44.
`CCCc1cc(CNS(=O)(=O)c2cnn(C)c2C)on1` was tested, and the “% Inhibition” value was 4% and the Z score was -0.54.
`Cc1cc(NC(=O)c2ccc(F)cc2Cl)sc1C(=O)N(C)c1ccccc1` was tested, and the “% Inhibition” value was 5% and the Z score was -0.96.
`Cc1cc(NC(=O)c2nnn(-c3ccc(F)c(Cl)c3)c2C)n2ncnc2n1` was tested, and the “% Inhibition” value was 32% and the Z score was -3.51.
With `Cc1cc(=O)c(C(=O)N[C@H](c2cc3ccccc3o2)C2CC2)c[nH]1` the “% Inhibition” value was 1% and the Z score was -0.1.
For `CN(CC1CCOCC1)C(=O)CCCc1ccccc1`, the “% Inhibition” value was -7% and the Z score was 1.06.
For `O=C(c1ccoc1)N1CCC2(CC1)C[C@@H](N1CCN(c3ccccn3)CC1)CCO2`, the “% Inhibition” value was -10% and the Z score was 1.87.
In the case of `Cc1c(CNc2cnccc2CO)cnn1C`, the “% Inhibition” value is reported as -11% and the Z score is reported as 1.71.
With `CCCCOC(=O)N1CCC(c2nnc(CN3CCOCC3)n2C)CC1` the “% Inhibition” value was -14% and the Z score was 1.73.
For `CCN1C(=O)CCN(S(=O)(=O)c2ccccc2C)CC12CCOCC2`, the “% Inhibition” value was -1% and the Z score was 0.14.
With `Cc1nc(NCc2ccc3c(c2)OCCO3)sc1-c1ccn(CCc2cccs2)n1` the “% Inhibition” value was -3% and the Z score was 0.45.
For `Cc1ccc(C(=O)N2CCC[C@H](c3cc4n(n3)CCCNC4=O)C2)c(O)n1`, the “% Inhibition” value was -11% and the Z score was 2.06.
In the case of `Cc1ccc2ncccc2c1-c1ccc(=O)n(C)n1`, the “% Inhibition” value is reported as -10% and the Z score is reported as 1.47.
For `CCOC(=O)[C@H]1CCCN(C(=O)CN(C)c2nc(C)cc(C)n2)C1`, the “% Inhibition” value was -11% and the Z score was 1.41.
`Cc1cc(C(=O)Nc2cccc(S(=O)(=O)N3CCOCC3)c2)cs1` was tested, and the “% Inhibition” value was -18% and the Z score was 2.53.
With `CC(C)CN(Cc1cccc(OS(=O)(=O)C(C)C)c1)C(=O)NC(C)(C)C` the “% Inhibition” value was -3% and the Z score was 0.41.
For `CC(=Cc1ccc(OC(C)C)cc1)c1cnccn1`, the “% Inhibition” value was -8% and the Z score was 0.88.
`COc1cc(NC(=O)c2cccnc2)c(OC)cc1NC(=O)c1cccnc1` was tested, and the “% Inhibition” value was -14% and the Z score was 2.2.
For `CN(Cc1ccc(CN2CCCC2)s1)Cc1nccn1C`, the “% Inhibition” value was -11% and the Z score was 1.04.
`CC1CCN([C@@H](CNC(=O)N2CCOCC2)c2cccs2)CC1` was tested, and the “% Inhibition” value was -7% and the Z score was 1.36.
`CN=C(NCc1cccc(N(C)C)c1)N[C@@H](C)COC` was tested, and the “% Inhibition” value was -12% and the Z score was 1.03.
`Cc1cccc(CC(CNC(=O)C2CC=CCC2)C(=O)O)c1` (centres undefined) was tested, and the “% Inhibition” value was 1% and the Z score was -0.1.
`Cc1cc(N2CCC[C@H](S(C)(=O)=O)CC2)ncc1Br` was tested, and the “% Inhibition” value was -9% and the Z score was 0.95.
For `CC(C)N(C(=O)c1cnc(-c2ccsc2)s1)c1cccnc1`, the “% Inhibition” value was -4% and the Z score was 0.69.
`CC[C@H](C)N(Cc1ccc(OC)c(OS(=O)(=O)c2ccc(F)cc2)c1)C(=O)Nc1cccc(C)c1` was tested, and the “% Inhibition” value was 3% and the Z score was -0.5.
With `O=C(NC1CCC(CC2CCC(NC(=O)C(F)(F)F)CC2)CC1)C(F)(F)F` (centres undefined) the “% Inhibition” value was -6% and the Z score was 0.88.
For `CC(C)c1noc(-c2ccnc(NC[C@H](O)COc3ccc(F)c(F)c3)c2)n1`, the “% Inhibition” value was -13% and the Z score was 1.61.
In the case of `COc1ccccc1CNS(=O)(=O)c1cc(-c2n[nH]c(=O)c3c2CCCC3)ccc1C`, the “% Inhibition” value is reported as -19% and the Z score is reported as 1.65.
`O=C(C1CCC1)N1CC(Oc2ccccc2-c2nc(C3CC3)no2)C1` was tested, and the “% Inhibition” value was -13% and the Z score was 1.49.
In the case of `O=C(NCCN1CCOCC1)[C@@H]1CCN(c2ccc(Cl)cc2F)C1=O`, the “% Inhibition” value is reported as 8% and the Z score is reported as -1.03.
`O=C(Nc1ccc2ccccc2c1)N1CCC(n2cc(-c3cccnc3)nn2)CC1` was tested, and the “% Inhibition” value was 15% and the Z score was -1.9.
`C[C@@H](CN1CCCCC1)NC(=O)c1nc(C2CC2)nn1C` was tested, and the “% Inhibition” value was -5% and the Z score was 0.46.
